In all, about 33,000 sequences were measured (“E-score (-0.5 to 0.5)”: median about -0.036, highest 2% from about 0.37 on). Some of the results follow.
Biological target: T1, Yer064c (UniProt P40041)
T1 sequence: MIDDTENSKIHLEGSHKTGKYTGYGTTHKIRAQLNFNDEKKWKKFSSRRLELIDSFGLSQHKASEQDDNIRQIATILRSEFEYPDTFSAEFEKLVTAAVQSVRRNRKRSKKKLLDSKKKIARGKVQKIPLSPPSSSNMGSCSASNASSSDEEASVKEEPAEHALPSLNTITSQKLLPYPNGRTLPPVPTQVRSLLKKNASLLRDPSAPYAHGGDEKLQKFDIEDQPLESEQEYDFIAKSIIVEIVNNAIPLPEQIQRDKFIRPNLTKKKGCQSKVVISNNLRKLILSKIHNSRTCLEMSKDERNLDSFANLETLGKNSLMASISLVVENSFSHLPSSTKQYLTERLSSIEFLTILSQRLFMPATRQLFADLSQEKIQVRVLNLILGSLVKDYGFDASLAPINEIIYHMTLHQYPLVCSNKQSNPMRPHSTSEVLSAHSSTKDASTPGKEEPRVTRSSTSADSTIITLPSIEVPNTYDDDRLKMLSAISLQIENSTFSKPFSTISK
Assay: PBM E-score (8-mer binding enrichment) (E-score (-0.5 to 0.5)); higher = stronger / more preferred TF binding; most listed sequences are background and not binding sites
Conditions: protein concentration: 200 nM; construct: GST-full length
Method in brief: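 Universal all-10-mer Agilent arrays, double-stranded by primer extension on fresh or once-stripped slides, were probed with about 100-200 nM GST-tagged yeast transcription factors made by PURExpress. Fluorescent anti-GST detected bound protein, and masliner normalised the scans. E-scores from the Universal PBM Analysis Suite were given to each ungapped eight-base word pooled with its reverse complement.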

Sequence | PBM E-score
AAGGCCTG | -0.162
ATTAGCTG | 0.0658
AGTAACGC | 0.0217
AAACATGC | -0.0124
CTCATGAG | 0.3
GAACTAGC | -0.171
CCATAAGA | 0.0201
ATCCAAAA | 0.0764
GCTTCAGA | -0.0612
CCTAGGCC | -0.316
AGATTCAG | 0.167
CAAAGGGG | -0.227
ACTCTCCT | -0.0555
CGGAGTGA | 0.196
AGCCAGCG | -0.15
ACTCTCTA | 0.18
CAAAGATC | -0.00684
AATGTCAG | -0.0332
GCCGACGC | -0.14
ACCGGCAA | -0.11
AACAGCCG | -0.253
CAGATGAA | -0.0869
GACGACAC | 0.125
ACAGCATA | -0.101

Sequence | PBM E-score
AGTTTACC | 0.0731
GCAGCGCA | -0.0625
CTTTATCA | 0.0842
CACAACTC | 0.083
ATGCATCA | 0.102
AAACGCCC | -0.245
GCATCTCA | -0.107
CAAACAAG | -0.00935
ATACAAGG | 0.0972
AATGTGTA | 0.222
GGAGACAC | 0.139
CACTATAC | -0.184
AGGGACGG | -0.262
CGCCGCGC | -0.0918
GAGTGAAC | -0.0116
CAGAAGCC | -0.14
TATCGCAA | 0.0863
AGCTCACG | 0.0265
ACAAAGCA | -0.137
ACTTAACA | 0.178
CGCTACAC | -0.0776
ATACCTGC | -0.274
CGAGACAA | -0.138
ATCGTAAT | 0.0292

Sequence | PBM E-score
AGCTAATG | 0.125
CCATTCAA | 0.0772
GATGTGCA | 0.0566
ATGTTTTC | -0.00164
ATCAAATA | 0.195
CAAGAACG | -0.0323
ATGACGTA | 0.0562
ATGGTTGC | -0.105
ACCCAGCA | -0.0529
ATCATCTA | 0.239
ATCCTAAT | 0.112
ATAGTGAC | 0.124
CATTGGCG | -0.0381
CCTTGTTC | -0.169
CACCCAGA | -0.0135
GCAGCGAA | 0.0639
CTACAGAC | -0.184
AGGAACAG | -0.203
ATTCTAGG | 0.0267
ATCTGAGG | -0.097
GAATTGTC | -0.211
CGACCCAA | -0.0634
AGCAGAGG | -0.163
ACGTTCTC | -0.143

Sequence | PBM E-score
CTCCCGCC | -0.067
CGCTTCAC | -0.277
GGGGAACA | -0.21
ATACCCGA | -0.0409
ACTCTTGC | 0.251
AGAGTAGG | -0.0527
AGGGTCCA | -0.142
ATGATAGG | 0.039
AGTCAAAT | 0.412
GCATACGC | -0.232
AGCAGTAA | 0.00571
CAGAGCGA | 0.163
GTGGTTTA | 0.0183
TTATTCAA | 0.161
AGGGGCGA | -0.106
AACCCTCG | -0.0322
GCGCGCCA | -0.204
ACATCTAA | 0.0285
CCTCGCAA | -0.185
CTCCGGAG | 0.115
GACTTAGA | 0.347
ACATTGAG | 0.029

— the supplement of paper PMC3334620
